# Screen size: about 410,000 compounds; about 490 (0.12%) were called active. This list was built around the results that the source calls inconclusive (neither active nor inactive); the mix of calls is not that of the screen. The call rests on the fitted dose curve; in most records, active means well fitted inhibition curve with a large enough effect; inconclusive means small, poorly fitted or top-dose-only effect; inactive means flat fitted curve, though single readings scatter. Potencies of inconclusive entries are doubtful fits and often do not repeat.
# Target: pyruvate kinase (Trypanosoma brucei) (UniProt Q57TT1)
# Experiment: qHTS of Trypanosoma Brucei Inhibitors; further: nearly all actives have a fitted effect of over 50% in size
# Conditions: TbPYK enzyme, Kinase-Glo Plus ATP luminescence, 45 min; series mostly up to 76.8 µM
# In short: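 Screened from lowest to highest concentration, compounds were pinned into TbPYK/substrate mixtures, and ADP (130 uM final) was added. Plates sat at room temperature for 45 min prior to Kinase-Glo Plus detection by luminescence.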
# Potency means the concentration at half of the fitted maximal effect; tags describe the fitted curve by direction and shape.
row,SMILES,Potency
1,CC12CC[C@@H]3c4ccc(OS(=O)(=O)O)cc4CC[C@H]3C1CCC2=O (some centres not stated),inactive
2,O=C(/C=C/c1ccc(OC2CSC2)cc1)c1ccccc1,"inconclusive: 28.2 µM [inhibitor, single point]"
3,CC(=O)N1CCc2cc(S(=O)(=O)NC(Cc3ccccc3)C(=O)Nc3cc(C)ccc3C)ccc21 (configuration not stated),inactive
4,COc1ccccc1/C=C/C(=O)NCCc1ccccn1,inactive
5,O=C1C(Cl)=CC(=Nc2ccc(O)cc2)C=C1Cl,"inconclusive: 31.6 µM [inhibitor, partial curve, poor fit]"
6,CCSc1nnc(Nc2ccc(C)cc2)s1,"inconclusive: 0.794 µM [inhibitor, full curve, poor fit]"
7,Cc1ccc(NCc2n[nH]c(=S)n2-c2ccccc2)c(C)c1,"inconclusive: 2.51 µM [inhibitor, full curve, poor fit]"
8,Cc1ccc(N(C(C)C(=O)Nc2ccc3c(c2)OCO3)S(C)(=O)=O)cc1 (configuration not stated),"inconclusive: 28.2 µM [inhibitor, single point]"
9,COc1ccc(CC(=O)NCc2n[nH]c(=S)n2-c2ccc(Br)cc2)cc1,"inconclusive: 7.94 µM [inhibitor, partial curve, poor fit]"
10,CCCOc1ccc(C2C(=O)N(C3CCC(C)CC3)CC(=O)N2Cc2cccc(OC)c2)cc1OC (configuration not stated),inactive
11,CCOc1ccc(OCCSc2nc(C)cc(=O)[nH]2)cc1,"inconclusive: 28.2 µM [inhibitor, single point]"
12,Cc1cc(C)c2c(n1)sc1c(-c3ccccc3)c(C#N)c(N)nc12,"inconclusive: 39.8 µM [inhibitor, partial curve, poor fit]"
13,COc1ccc([C@H]2CC(=O)C=C(c3ccc(C)c(F)c3)C2)cc1,inactive
14,Cn1cccc1C(=O)Nc1nc(-c2ccccn2)cs1,"inconclusive: 35.5 µM [inhibitor, single point]"
15,C=CCn1c(-c2ccoc2)n[nH]c1=S,"inconclusive: 14.1 µM [inhibitor, partial curve]"
16,O=C(CCc1ccc(S(=O)(=O)N2CCOCC2)cc1)N/N=C/c1ccc(O)c(O)c1O,"inconclusive: 35.5 µM [inhibitor, partial curve]"
17,O=S(=O)(Nc1cccc(Cl)c1)c1ccc2oc(=S)[nH]c2c1,"inconclusive: 5.01 µM [inhibitor, full curve]"
18,CC(C)[N+](C)(CCC(C(N)=O)(c1ccccc1)c1ccccc1)C(C)C,"inconclusive: 44.7 µM [inhibitor, single point]"
19,O=c1[nH]c2cc3c(cc2cc1C(c1nnnn1CC1CCCO1)N1CCCC1)OCO3 (configuration not stated),"inconclusive: 12.6 µM [inhibitor, partial curve, poor fit]"
20,COc1ccc(CN(C)C[C@@H]2OCCCC[C@@H](C)Oc3ccc(N(C)C)cc3C(=O)N([C@H](C)CO)C[C@@H]2C)cc1,"inconclusive: 25.1 µM [inhibitor, single point]"
21,CN(C)S(=O)(=O)N(CC(=O)NCCSc1ccccc1)c1ccccc1,inactive
22,CS(=O)(=O)c1ccc(C(=O)Nc2nc(-c3ccco3)c(-c3ccco3)s2)cc1,"inconclusive: 39.8 µM [inhibitor, partial curve, poor fit]"
23,Cc1ccc(-n2c(-c3cc(-c4ccco4)[nH]n3)n[nH]c2=S)c(Br)c1,"inconclusive: 5.62 µM [inhibitor, partial curve, poor fit]"

row,SMILES,Potency
1,COc1cccc(-n2c(Cn3nc(C(F)F)cc3C(F)F)n[nH]c2=S)c1,"inconclusive: 2.82 µM [inhibitor, full curve, poor fit]"
2,Cc1cc(C)n(Cc2n[nH]c(=S)n2Cc2ccccc2)n1,"inconclusive: 31.6 µM [inhibitor, partial curve, poor fit]"
3,CCN(C(=O)C1CCCN(c2ncnc3c2nc2n3CCCCC2)C1)c1cccc(Cl)c1 (configuration not stated),inactive
4,CC(=O)C1=C(C)NC(SCC(=O)c2ccc(F)cc2)=C(C#N)C1CC(C)C (configuration not stated),active: 14.1 µM
5,CCSc1nc2c([nH]1)c(=O)n(C)c(=S)n2C,"inconclusive: 14.1 µM [inhibitor, partial curve, poor fit]"
6,O=C(O)CCn1cc(C=C2C(=O)NC(=O)NC2=O)c(-c2ccc(Br)cc2)n1,active: 17.8 µM
7,O=C(CSc1nc2ccccc2s1)Nc1ccc(Cl)c(C(=O)O)c1,"inconclusive: 20 µM [inhibitor, partial curve]"
8,Cc1nc2ccccc2c(=O)n1-c1ccc(F)cc1,inactive
9,Cc1cccc(C(=O)OCC(=O)c2ccc3c(c2)OCO3)c1O,inactive
10,COc1ccc(C(=O)NNc2ccccc2)cc1OC,"inconclusive: 31.6 µM [inhibitor, single point]"
11,CCc1nc(N2CCCC(C)C2)c2oc3ccccc3c2n1 (configuration not stated),"inconclusive: 50.1 µM [inhibitor, single point]"
12,CCCCC(=O)NNC(=S)NC(=O)c1ccc(C)cc1,"inconclusive: 31.6 µM [inhibitor, partial curve, poor fit]"
13,[Hg+][c]1ccccc1,"inconclusive: 3.55 µM [inhibitor, partial curve, poor fit]"
14,S=c1[nH]c(-c2ccccc2)cn1/N=C/c1ccccc1Br,"inconclusive: 2 µM [inhibitor, full curve]"
15,COc1cc(C2CC(=O)Nc3c2c(=O)n(C)c2ncnn32)cc(OC)c1OC (configuration not stated),inactive
16,S=c1[nH]nc(-c2ccccc2)n1/N=C/c1cccs1,active: 11.2 µM
17,CC1(C)Cc2c(cnn2-c2ccc(F)cc2)C(NC(=O)CCN2CCCC2=O)C1 (configuration not stated),"inconclusive: 28.2 µM [inhibitor, partial curve, poor fit]"
18,COc1ccc(NC(=O)CN2CCN(c3ccc(F)cc3)CC2)cc1Cl,"inconclusive: 7.08 µM [inhibitor, full curve]"
19,O=C1NC(=O)N(c2ccccc2)C(=O)/C1=C\C=C\c1ccccc1,"inconclusive: 22.4 µM [inhibitor, partial curve]"
20,Cc1ccc(OCc2nc(-c3ccccn3)n[nH]2)cc1,inactive
21,C=CCn1c(COC)nnc1SCC(=O)c1ccc(F)cc1,"inconclusive: 44.7 µM [inhibitor, single point]"
22,O=C1c2ccccc2C(=O)N1C1C=CC=CC=C1,"inconclusive: 25.1 µM [inhibitor, partial curve]"
23,COc1ccc(C(=O)Nc2ccc(-c3n[nH]c(=S)o3)cc2)cc1OC,"inconclusive: 14.1 µM [inhibitor, partial curve, poor fit]"

row,SMILES,Potency
1,CCn1ncc(Br)c1C(=O)Nc1nccs1,inactive
2,COCC(=O)Nc1ccc(N2CCOCC2)c(S(=O)(=O)Nc2ccccc2OC)c1,"inconclusive: 15.8 µM [inhibitor, partial curve, poor fit]"
3,CC(C)OP(=O)(OC(C)C)C1(NS(=O)(=O)c2ccc(Cl)cc2)C=C(Cl)C(=O)C(Cl)=C1,"inconclusive: 17.8 µM [inhibitor, partial curve]"
4,Cc1cc(SCC(=O)OCC(=O)N2CCN(C(=O)c3ccco3)CC2)c(C)cc1Br,"inconclusive: 50.1 µM [inhibitor, single point]"
5,O=c1[nH]c(=S)c2[nH]c(=S)n(-c3ccccc3)c2[nH]1,"inconclusive: 3.55 µM [inhibitor, full curve, poor fit]"
6,COCCn1nnnc1C(c1ccccc1)N1CCN(C)CC1 (configuration not stated),inactive
7,O=C1NC(=O)C(=Cc2cccs2)C(=O)N1,"inconclusive: 31.6 µM [inhibitor, partial curve, poor fit]"
8,COc1ccccc1NS(=O)(=O)c1cc(C(=O)NCC2CCCO2)ccc1C (configuration not stated),"inconclusive: 28.2 µM [inhibitor, partial curve]"
9,Cc1cc(O)c(C(c2ccccc2)N2CCC(C)CC2)c(=O)n1Cc1ccco1 (configuration not stated),inactive
10,CN(C)S(=O)(=O)c1cccc(NC(=S)N/N=C/C2CC=CCC2)c1 (configuration not stated),"inconclusive: 10 µM [inhibitor, partial curve]"
11,COc1ccc(/C=C/C(=O)c2ccc(O)cc2)cc1COc1ccc(F)cc1,"inconclusive: 44.7 µM [inhibitor, single point]"
12,O=C(COc1ccc(Cl)cc1Cl)Nc1ccccc1F,"inconclusive: 14.1 µM [inhibitor, partial curve, poor fit]"
13,O=S(=O)(O)c1ccc(SCc2ccccc2)nc1,"inconclusive: 15.8 µM [inhibitor, partial curve, poor fit]"
14,CCOC(=O)C1Nc2ccc(Br)cc2C2C=CCC12 (configuration not stated),"inconclusive: 35.5 µM [inhibitor, single point]"
15,S=c1nc(-c2ccccc2)n(-c2ccccc2)[nH]1,"inconclusive: 11.2 µM [inhibitor, partial curve]"
16,O=C(Cn1[nH]c(=O)c2ccccc2c1=O)Nc1cccc(-c2nnc3n2CCCCC3)c1,"inconclusive: 1.58 µM [inhibitor, full curve]"
17,COc1ccc(CCn2c(-c3ccncc3)n[nH]c2=S)cc1OC,"inconclusive: 31.6 µM [inhibitor, partial curve, poor fit]"
18,CS(=O)(=O)c1cc([N+](=O)[O-])c(Sc2nc3ccccc3[nH]2)c([N+](=O)[O-])c1,"inconclusive: 11.2 µM [inhibitor, partial curve]"
19,Cc1ccc(Nc2ccc(N3CCN(C(=O)c4ccc([N+](=O)[O-])cc4Cl)CC3)nn2)cc1,inactive
20,Cc1cccc(NC(=S)NNC(=O)c2nn(C)cc2Cl)c1,inactive
21,COC(=O)c1cc2c(-c3ccccc3)cc3ccccn3c-2c1C(=O)OC,"inconclusive: 39.8 µM [inhibitor, single point]"

# Source: PubChem BioAssay AID624173 (National Center for Advancing Translational Sciences (NCATS), 2012)
